Data as given in PMC4336329 (PLoS ONE, 2015).
Among all 310,000 compounds or so, about 2,200 (0.71%) showed an effect of 50% or more. Effects have a minus sign here. Some of the results follow.

Biological target: human ether-à-go-go-related gene (hERG) potassium channel (human, UniProt Q12809)
Assay: primary screen, population patch clamp on CHO cells stably expressing hERG

human ether-à-go-go-related gene (hERG) potassium channel, sequence (Q12809 whole entry, looked up): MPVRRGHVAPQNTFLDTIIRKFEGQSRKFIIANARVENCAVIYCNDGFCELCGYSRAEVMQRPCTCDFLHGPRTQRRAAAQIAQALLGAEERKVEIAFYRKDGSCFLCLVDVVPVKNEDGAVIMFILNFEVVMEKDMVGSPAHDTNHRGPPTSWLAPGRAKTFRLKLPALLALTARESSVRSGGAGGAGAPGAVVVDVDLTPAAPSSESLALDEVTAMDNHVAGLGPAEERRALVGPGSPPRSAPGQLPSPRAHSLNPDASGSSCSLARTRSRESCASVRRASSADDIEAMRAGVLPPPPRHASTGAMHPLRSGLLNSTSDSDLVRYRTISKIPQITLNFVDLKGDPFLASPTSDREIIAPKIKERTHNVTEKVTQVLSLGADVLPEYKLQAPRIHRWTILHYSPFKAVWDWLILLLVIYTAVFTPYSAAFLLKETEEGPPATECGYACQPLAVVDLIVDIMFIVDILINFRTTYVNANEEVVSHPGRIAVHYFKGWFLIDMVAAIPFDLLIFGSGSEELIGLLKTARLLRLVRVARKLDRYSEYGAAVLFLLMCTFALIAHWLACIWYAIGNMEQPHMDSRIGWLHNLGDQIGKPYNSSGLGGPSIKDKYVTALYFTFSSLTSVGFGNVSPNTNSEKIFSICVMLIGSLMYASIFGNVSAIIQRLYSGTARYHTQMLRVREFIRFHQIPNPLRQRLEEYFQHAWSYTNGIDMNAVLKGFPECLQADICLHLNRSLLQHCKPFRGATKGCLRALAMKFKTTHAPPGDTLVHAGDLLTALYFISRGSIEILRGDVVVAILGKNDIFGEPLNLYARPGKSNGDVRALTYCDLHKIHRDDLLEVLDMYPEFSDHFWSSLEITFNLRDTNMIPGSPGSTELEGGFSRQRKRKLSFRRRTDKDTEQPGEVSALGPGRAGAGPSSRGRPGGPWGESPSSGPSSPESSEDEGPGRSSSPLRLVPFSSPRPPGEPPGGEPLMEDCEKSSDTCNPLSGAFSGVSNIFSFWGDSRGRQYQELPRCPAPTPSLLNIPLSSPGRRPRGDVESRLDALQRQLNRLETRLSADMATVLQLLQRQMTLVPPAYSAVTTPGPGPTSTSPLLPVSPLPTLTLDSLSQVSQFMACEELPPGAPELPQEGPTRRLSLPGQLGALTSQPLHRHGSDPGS

Structure (SMILES) | hERG current change (%, negative = inhibition) at 1uM
CN1CCC(N(C)S(=O)(=O)c2ccc(NC(=O)COc3ccc(F)cc3Cl)cc2)CC1 | 5.82%
O=C(NCc1ccc(F)cc1)c1ccc(CS(=O)(=O)Cc2ccc(F)cc2)o1 | 12%
CCc1ccc(-c2cc(C)no2)cc1S(=O)(=O)N1CCN(c2ccc(F)cc2)CC1 | 6.58%
O=C1NC(c2ccc(Cl)cc2)Nc2ccccc21 (stereo not drawn) | 7.47%
O=C(CSc1ccc(C(F)(F)F)cn1)Nc1ccccc1 | 3.4%
COc1cccc(/C=N/NC(=O)c2cnccn2)c1O | 3.25%
Cc1cccc(OCC(=O)N2CCN(Cc3ccc4c(c3)OCO4)CC2)c1.O=C(O)C(=O)O | 3.62%
O=C(N/N=C/c1ccccc1[N+](=O)[O-])c1cnccn1 | 10.5%
O=C(CN1CCCCCC1)NCc1ccccc1 | 11.8%
O=C(COc1ccc(F)cc1Cl)Nc1cccc(S(=O)(=O)N2CCCCCC2)c1 | 8.73%
CCOC(=O)c1cc(-c2ccc([N+](=O)[O-])cc2)nc2c1c(=O)[nH]c(=O)n2Cc1ccccc1 | 15.8%
COc1cc(-c2nnc(COc3ccc4cc(Br)ccc4c3)o2)cc(OC)c1OC | 16.9%
COc1ccc(CNC(=O)C2CCN(C(=O)Cc3ccccc3)CC2)cc1 | 0.341%
Cc1ccc(/C=C2\SC(=S)N(c3cccnc3)C2=O)cc1 | 9.76%
O=C1NC(=O)/C(=C\c2ccc(OCc3cnc(Cl)s3)cc2)S1 | 10.9%
CCCN(CC1CC1)C(=O)CSc1ncnc2sc(C)c(C)c12 | -7.45%
CCCn1c(N)c(N(CCOC)C(=O)c2ccccc2F)c(=O)[nH]c1=O | 9.25%
Cc1ccc(CNC(=O)C2CCCN(S(=O)(=O)c3c(C)noc3/C=C/N(C)C)C2)cc1 (stereo not drawn) | 8.02%
Cc1ccc(SC(C)C(=O)Nc2ccccc2-c2ccccc2)cc1 (stereo not drawn) | 7.89%
O=[N+]([O-])c1ccc(CSc2nnc(SCc3ccccc3)s2)cc1 | 12.5%
O=C(Nc1ccc(-c2nnc(-c3ccccc3)o2)cc1)C1CCCO1 (stereo not drawn) | 4.38%
C/C(N)=C(/C#N)C(=O)COC(=O)CC12CC3CC(CC(C3)C1)C2 | 14.2%
CC(C)=CCc1c(O)cc2c(c1O)C(=O)CC(c1ccccc1)O2 (stereo not drawn) | 12.9%
COc1ccc(CNC(=O)c2cc(SC)ccc2Cl)cc1OC | 5.58%
